Measured values: PubChem BioAssay AID743279 (National Center for Advancing Translational Sciences (NCATS), 2014)
The campaign covered roughly 360,000 compounds. About 17,000 (4.7%) were called active. Inconclusive means that the source gave no clear call. Such entries were picked first, then a sample of the others. Cut-off read from the data, not from the text of the source: active = activity change below about -50%; inconclusive = mostly about -30% to -49%; inactive = weaker than that.

experiment: qHTS for Inhibitors of Inflammasome Signaling: IL-1-beta AlphaLISA Primary Screen; details: THP-1 LPS/ATP IL-1B secretion, 16 h; at 57.5 µM, active compounds read low
Summary of the method: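 THP-1 cells pretreated 1 hr with compounds (up to 57.5 uM final), then stimulated with LPS (250 ng/mL final) plus ATP (1.25 mM final); secreted IL-1B measured by AlphaLISA after 16 hr, decreased signal indicating inhibition.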
% is set by controls: 0 for no effect and ±100 for the full control effect.

Structure (SMILES)	activity change
CCC1CCCCN1CCCNC(=O)c1ccc2nc(N3CCC(C)CC3)sc2c1 (stereo not given)	inconclusive: -45.2%
COC(=O)[C@]12CCCCC=C1N(CCC1=CCCCC1)C(=O)[C@H](CC(=O)NCCC(C)C)C2	inconclusive: -34.2%
COc1ccc(CCNC(=O)CSc2ccc3nnc(CCNC(=O)c4ccc(C)cc4)n3n2)cc1OC	inactive: 7.8%
COc1ccccc1NC(=O)c1cccc(S(=O)(=O)N2CCN(c3ccccc3)CC2)c1	inconclusive: -45.8%
CC(C)(C)c1ccc(C(=O)N2CCN(CCNC(=O)C(=O)NCc3ccc(Cl)cc3)CC2)cc1	active: -67.3%
O=C(c1cc(COc2ccc(F)cc2Cl)on1)N1CCC(c2ccncc2)CC1	inconclusive: -41.5%
Cc1nn(-c2cccc(Cl)c2)c2c1C(c1ccncc1)C(C#N)=C(N)O2 (stereo not given)	inconclusive: -34.7%
O=C(CSc1nc2c(cnn2-c2cccc(Cl)c2)c(=O)[nH]1)NCCC1=CCCCC1	inactive: 4.76%
O=C(C[n+]1cc(-c2ccc(Cl)c(Cl)c2)n2c1CCC2)c1cccs1	inconclusive: -49.4%
COC(=O)c1c(NC(=O)CN2CCN(C(=O)c3ccco3)CC2)c2c(C)cccc2n1C	inactive: 0.79%
Cc1ccc(C2(CCNC(C)c3cccs3)CCOC(C(C)C)C2)cc1 (stereo not given)	active: -81.2%
CCOc1ccccc1NC(=O)COc1cccnc1[N+](=O)[O-]	inactive: 7.23%
O=C(c1[nH]ncc1-c1cccc(Br)c1)C1CO1 (stereo not given)	active: -96.2%
CCCC(=O)Nc1nn(CC(C)C)c2nc3cc(C)ccc3cc12	inactive: -8.32%
FC(F)(F)c1ccccc1Cc1c(-c2ccc(Cl)cc2)nc2c3ccccc3ccn12	inactive: 20.1%
FC(F)(F)c1cc(Cl)c2nc(-c3ccccc3)cn2c1	inactive: 7.95%
Cc1ccc(-n2c(Cl)c(Cl)nc(Cl)c2=O)cc1	active: -97.3%
CC(C)CNc1oc(-c2ccco2)nc1C#N	inconclusive: -33%
COc1ccc(-c2nc3ccc(C)cn3c2Cc2ccccc2)cc1OC	inconclusive: -33.6%
O=C1NC[C@@H](Cc2cccc3ccccc23)N(CC2(c3ccccc3)CC2)C1=O	inconclusive: -33.4%
O=S(=O)(c1ccccc1)N1N=C(c2ccc(Br)cc2)CC1c1ccco1 (stereo not given)	inconclusive: -36.4%
c1ccc(-c2ccc(-c3nc(-c4ccccn4)no3)cc2)cc1	inactive: -3.89%
Brc1cc2c(cc1/C=N/Nc1nc(N3CCCC3)nc(N3CCOCC3)n1)OCO2	inconclusive: -33.8%
Cc1cc(C(=O)Nc2ccc(N3CCOCC3)c(Cl)c2)c(C)o1	inconclusive: -38.1%
CC(C)(C)NC(=O)C(c1ccc(O)cc1)N(Cc1ccco1)C(=O)Cn1nnc(-c2cccs2)n1 (stereo not given)	inconclusive: -38%
c1ccc(-c2n[nH]c(-c3ccccc3)c2-c2nc3ccccc3[nH]2)cc1	inconclusive: -40%
CN(C)CCCOC(=O)c1ccccc1Cl	inactive: 3.48%
COc1ccc(-c2nc(N=Nc3ccc(O)cc3)n[nH]2)cc1	inconclusive: -30.3%

Structure (SMILES)	activity change
O=C(CSc1n[nH]c(-c2ccco2)n1)Nc1ccccc1Cl	inconclusive: -34.3%
CNC(=O)c1[nH]cnc1C(=O)Nc1cccc(OC)c1	inactive: -3.19%
CCOC(=O)N1CCN(c2c(-c3ccccc3)c3cc(Cl)ccc3[nH]c2=O)CC1	inconclusive: -30.3%
CCOC(=O)c1c(NC(=O)/C=C\C(=O)O)sc(C)c1-c1ccccc1	active: -98.7%
CC1CCN(c2nc3c(c(=O)n(C)c(=O)n3C)n2Cc2ccccc2)CC1	active: -61.6%
COc1ccc(OC)c(-c2nn(-c3ccccc3)cc2C(=O)N2CCc3ccccc3C2)c1	inconclusive: -41.5%
CCOc1ccc2nc(C)cc(C(=O)O)c2c1	inactive: -9.2%
O=C(OCn1ncc(Cl)c(Cl)c1=O)c1ccccc1Cl	active: -97.4%
COc1cccc(NC(=O)c2nn(C34CC5CC(CC(C5)C3)C4)cc2[N+](=O)[O-])c1	inconclusive: -35.1%
Cc1ccc(C)c(CSC2=NCCN2C(=O)Cc2ccc([N+](=O)[O-])cc2)c1	inconclusive: -47.7%
Cc1ccc(NC(=O)CCC(=O)c2cccs2)c(Br)c1	inactive: -8.58%
C=CCNC(=O)c1ccc(OC)cc1	inconclusive: -37.6%
Cc1noc(C)c1CSCC(=O)N(C)CC(=O)Nc1ccc(Cl)c(Cl)c1	inconclusive: -34.6%
N/C(Cc1ccc([N+](=O)[O-])cc1)=N\OC(=O)c1cccc(Br)c1	inactive: -5.42%
CCOc1ccc(-c2nc(CSc3nncs3)cs2)cc1OC	inconclusive: -30.7%
NC(N)=NCCCC(NC(=O)c1ccccc1)C(=O)Nc1ccc([N+](=O)[O-])cc1 (stereo not given)	inconclusive: -34.1%
CCOCCCNC(=O)C(c1ccc(C)cc1)N(Cc1cccs1)C(=O)c1ccccc1O (stereo not given)	active: -108%
CC1=C(C(=O)N2CCCCCC2)CC(CC(=O)NCCc2ccccn2)C(=O)N1Cc1ccc(C(C)(C)C)cc1 (stereo not given)	inconclusive: -36.7%
O=C(NCCN1CCOCC1)c1ccc2c(c1)N(Cc1ccc(Cl)cc1)CCS2	inconclusive: -32.1%
COc1cccc(CN2CCN(S(=O)(=O)c3ccc(Br)cc3)CC2)c1	inconclusive: -43.3%
CN1CCN(CCCOc2ccc(-c3ccccc3)cc2)CC1	active: -81.8%
CCOc1cc(/C=N/NC(=O)COc2ccc(C)cc2)ccc1OC(=O)c1cccs1	inconclusive: -30.3%
O=C1Nc2ccccc2N=C(c2ccc3c(c2)OCO3)C1N(C(=O)c1ccnc2ccccc12)c1ccccc1 (stereo not given)	inconclusive: -41.1%
O=C(NNc1ccccc1)C(=O)NNc1ccccc1	inactive: -15.3%
COc1ccc(OC)c(CC(NC(C)=O)C(=O)NC2CCN(c3c(Cc4ccccc4)c(C)nc4ncnn34)CC2)c1 (stereo not given)	inconclusive: -48.1%
CCOC(=O)Nc1ccc(S(=O)(=O)N2CCC(c3nc4ccccc4[nH]3)CC2)cc1	inconclusive: -33.2%
COc1cc(CNC(C)C23CC4CC(CC(C4)C2)C3)cc(OC)c1OC (stereo not given)	inactive: -19.7%
